{"source": "PubChem BioAssay AID1347430", "about": "(National Center for Advancing Translational Sciences (NCATS), 2020)", "note": "Screen size: about 91,000 compounds; about 130 (0.14%) were called active. The shares of active, inactive and inconclusive entries below differ from those in the screen. Calls come from the whole dose curve; as a rule, active = well fitted inhibition curve with a large enough effect; inconclusive = small, poorly fitted or top-dose-only effect; inactive = flat fitted curve, though single readings scatter. Potencies of inconclusive entries are doubtful fits and often do not repeat. Potency is the fitted concentration of half-maximal effect; tags give direction and shape of the fitted curve."}
{"system": "Uracil-DNA glycosylase", "assay": "Primary qHTS assay for inhibitors of Activation Induced Cytidine Deaminase (AID): UDG Counterscreen signal; note: nearly all actives have a fitted effect of over 65% in size", "conditions": "FRET deamination/UDG coupled assay, UDG read, 4 h; series mostly up to 115 µM"}
{"smiles": "CC(C)(C)C(=O)C[S+]1CCCC1", "Potency": "inactive"}
{"smiles": "COc1ccc(CNC(=O)c2ccc(-c3nc(CSc4ccccc4)c(C)o3)cc2)c(OC)c1", "Potency": "inconclusive: 89.1 µM [inhibitor, single point]"}
{"smiles": "Cc1nc(NC(=O)C2CC(=O)N(CC(C)C)C2)sc1C", "note": "(centres undefined)", "Potency": "inactive"}
{"smiles": "Cc1ccc(C)c(NC(=O)NCc2ccc3c(c2)CCN3C(=O)c2ccccc2)c1", "Potency": "inconclusive: 63.1 µM [inhibitor, partial curve, poor fit]"}
{"smiles": "Cc1cccc2c(C(=O)O)cc(-c3ccc(Cl)s3)nc12", "Potency": "inactive"}
{"smiles": "COC(=O)c1sc2cccc(F)c2c1S(=O)(=O)NC(C)c1ccccc1", "note": "(centres undefined)", "Potency": "inconclusive: 89.1 µM [inhibitor, single point]"}
{"smiles": "CC(=O)Nc1ccc(C)cc1-c1nc2ccccc2n(Cc2cccc(Br)c2)c1=O", "Potency": "inconclusive: 70.8 µM [inhibitor, single point]"}
{"smiles": "CCN(C(=O)CSc1nc2ccccc2nc1Cc1cccc(OC)c1)c1cccc(C)c1", "Potency": "inconclusive: 89.1 µM [inhibitor, single point]"}
{"smiles": "N#Cc1ccc(C(=O)OCCOc2cccc(Cl)c2)cc1", "Potency": "inactive"}
{"smiles": "Fc1ccc(-c2noc3ncnc(N4CCCCC4)c23)cc1", "Potency": "inconclusive: 89.1 µM [inhibitor, single point]"}
{"smiles": "COc1ccc(NC(=O)C2CCN(c3nc(-c4ccc(OC)c(OC)c4)no3)CC2)cc1Cl", "Potency": "inactive"}
{"smiles": "Clc1ccc(CCNC(c2cccc(Cl)c2)c2nnc(-c3ccccc3)o2)cc1", "note": "(centres undefined)", "Potency": "inconclusive: 89.1 µM [inhibitor, partial curve, poor fit]"}
{"smiles": "O=C(NCC(c1cccs1)S(=O)(=O)c1cccs1)c1ccc(C(F)(F)F)cc1", "note": "(centres undefined)", "Potency": "inconclusive: 89.1 µM [inhibitor, partial curve, poor fit]"}
{"smiles": "CCC(C)(C)C1CCC(NC(=O)c2cccnc2Cl)CC1", "note": "(centres undefined)", "Potency": "inactive"}
{"smiles": "CC1=C(c2ccc(Cl)cc2)S(=O)(=O)NC1=NCc1ccc(C)cc1", "Potency": "inconclusive: 89.1 µM [inhibitor, single point]"}
{"smiles": "CCOc1ccccc1NC(=O)Cn1nc2c3cc(F)ccc3n(Cc3cccc(C)c3)cc-2c1=O", "Potency": "inconclusive: 25.1 µM [inhibitor, partial curve, poor fit]"}
{"smiles": "CCOc1ccccc1NS(=O)(=O)c1ccc(-c2coc(C)n2)cc1", "Potency": "inactive"}
{"smiles": "CCn1c(=O)c2sc(N3CCCC3)nc2n(CC(=O)Nc2cc(F)ccc2C)c1=O", "Potency": "inconclusive: 89.1 µM [inhibitor, single point]"}
{"smiles": "Cc1ccccc1CN1CCc2nc(Nc3ccc4c(c3)OCCO4)ncc2C1", "Potency": "inconclusive: 39.8 µM [inhibitor, single point]"}
